Experimental data from PMC4336329 (PLoS ONE, 2015).
The campaign covered roughly 310,000 compounds. About 14,000 (4.5%) showed an effect of 50% or more. The effect is printed as a negative number. The list shows a part of the results.

Each molecule was assayed against human ether-à-go-go-related gene (hERG) potassium channel (human, UniProt Q12809) (assay: primary screen, population patch clamp on CHO cells stably expressing hERG).
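Further: peak tail current of the secondary pulse compared with the same well before compound.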

human ether-à-go-go-related gene (hERG) potassium channel, sequence (Q12809 whole entry, looked up): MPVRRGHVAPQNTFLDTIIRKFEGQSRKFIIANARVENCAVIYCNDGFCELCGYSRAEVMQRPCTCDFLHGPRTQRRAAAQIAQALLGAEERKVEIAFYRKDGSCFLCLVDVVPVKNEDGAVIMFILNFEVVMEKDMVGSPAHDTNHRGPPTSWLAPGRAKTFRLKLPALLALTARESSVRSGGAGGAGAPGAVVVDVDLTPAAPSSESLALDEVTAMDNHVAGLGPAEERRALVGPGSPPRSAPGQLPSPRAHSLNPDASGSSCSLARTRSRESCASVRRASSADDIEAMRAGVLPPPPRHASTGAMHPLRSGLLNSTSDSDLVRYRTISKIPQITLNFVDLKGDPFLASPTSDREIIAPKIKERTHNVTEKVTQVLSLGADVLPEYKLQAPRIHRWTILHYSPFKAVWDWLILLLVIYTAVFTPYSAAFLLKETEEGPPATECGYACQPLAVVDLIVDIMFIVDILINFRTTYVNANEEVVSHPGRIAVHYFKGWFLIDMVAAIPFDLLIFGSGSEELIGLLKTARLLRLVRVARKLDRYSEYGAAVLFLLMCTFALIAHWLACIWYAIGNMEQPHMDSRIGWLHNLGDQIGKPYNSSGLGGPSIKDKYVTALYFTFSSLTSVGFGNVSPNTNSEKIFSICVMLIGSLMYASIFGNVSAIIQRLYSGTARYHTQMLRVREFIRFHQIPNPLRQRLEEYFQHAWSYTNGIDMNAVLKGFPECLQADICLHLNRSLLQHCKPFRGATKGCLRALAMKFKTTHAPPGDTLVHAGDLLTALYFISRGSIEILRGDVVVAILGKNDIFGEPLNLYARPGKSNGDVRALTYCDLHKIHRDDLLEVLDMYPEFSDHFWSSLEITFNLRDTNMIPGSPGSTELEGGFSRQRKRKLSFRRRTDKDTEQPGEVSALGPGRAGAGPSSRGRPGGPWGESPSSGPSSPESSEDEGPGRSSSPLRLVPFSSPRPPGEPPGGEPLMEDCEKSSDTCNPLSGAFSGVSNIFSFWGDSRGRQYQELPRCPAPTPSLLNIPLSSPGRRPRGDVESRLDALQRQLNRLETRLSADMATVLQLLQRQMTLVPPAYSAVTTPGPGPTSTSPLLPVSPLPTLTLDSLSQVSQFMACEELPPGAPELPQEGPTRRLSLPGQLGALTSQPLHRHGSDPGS

SMILES	hERG current change (%, negative = inhibition) at 10uM [%]
CCOc1ccccc1/C=C(\C#N)C(=O)Nc1cccc(C(=O)O)c1	-8.31
CC(C)Cn1c(=S)[nH]c2cc(Cl)ccc21	1.84
CCOc1ccc(N(CC(=O)NCc2cccs2)S(=O)(=O)c2c(C)noc2C)cc1	-5.7
COC(=O)C1CCN(C(=O)/C=C/c2ccc(OC)cc2)CC1	-8.38
CC(C)Oc1cccc(C(=O)NC(=S)Nc2ccc(N3CCN(C)CC3)cc2)c1	-7.11
Cc1ccc(N2C(=O)CC(Sc3ncn[nH]3)C2=O)cc1 (stereo not shown)	12.4
O=C(COc1ccccc1F)NCC(c1ccc(F)cc1)N1CCOCC1 (stereo not shown)	-1.29
CC(C)C(=O)Nc1cccc(-c2cn3ccsc3n2)c1	1.26
Cc1ccc(/C=C/C(=O)Nc2ncc(C)s2)o1	-3.3
CCOC(=O)C1CCCN(c2oc(-c3ccc(OC)cc3)nc2C#N)C1 (stereo not shown)	-5.97
COc1ccc(CCn2c(NN)nc3c2c(=O)[nH]c(=O)n3C)cc1	4.22
O=C(CSc1ncnc2sc3c(c12)CCC3)N1CCOCC1	12.2
Cc1ccc(C(=O)NC(=S)Nc2ccccc2C(F)(F)F)cc1C	10.2
Cc1cccc(NC(=O)c2cc(NC(=O)C3CCCCC3C(=O)O)ccc2Cl)n1 (stereo not shown)	4.05
CN(C(=O)c1ccno1)c1nnc(-c2ccccn2)s1	-2.17
Clc1ccc(C2=NN(c3ccccc3)C(c3ccco3)C2)cc1 (stereo not shown)	14.3
Cc1ccccc1NC(=S)N(C)Cc1cn(C)c2ccccc12	-1.47
N#Cc1cccc(NC(=O)CCn2ccnc2)c1	2.87
COc1ccc(Oc2cc(NC(=O)c3nn(C)cc3[N+](=O)[O-])cc([N+](=O)[O-])c2)cc1	-1.71
C#CCOc1ccc(C2C3=C(CC(C)(C)CC3=O)N(CC(=O)O)C3=C2C(=O)CC(C)(C)C3)cc1	-2.03
Cc1ccc(S(=O)(=O)CCC(=O)N(C)C2CCCCC2)cc1	8.61
O=C(CNC(=O)c1ccccc1F)c1ccc(Br)cc1	7.47

SMILES	hERG current change (%, negative = inhibition) at 10uM [%]
O=C(/C=C/Nc1ccc(F)c(F)c1)c1cccs1	9.02
CNc1ncc(C(=O)c2ccc(F)cc2)s1	5.44
Cl.Cn1cccc1CNC1CCCCC1	4.09
Cn1nc(C(F)(F)F)c(-c2ccc(Br)cc2)c1NC(=O)c1cccnc1	0.61
Cc1ccc(S(=O)(=O)Nc2nc3ccccc3s2)cc1	14.6
CC(C)CCNC(=O)NC(=O)COC(=O)C1CCN(S(=O)(=O)c2ccccc2F)CC1	6.15
CSc1sc2ccccc2[n+]1CCCS(=O)(=O)[O-]	16.6
O=C(c1ccc(N2CCCC2=O)cc1)N1CCN(c2ccc(Cl)cc2)CC1	-33.8
O=C(CC1Nc2c3ccccc3nc(=S)n2C1=O)NC1CCCCC1 (stereo not shown)	17.4
CCCCn1nnnc1SCC(=O)c1ccccc1F	-4.28
CCn1c(SCC(=O)NCc2ccco2)nnc1-c1ccncc1	18.6
COc1ccc(/C=C/C(=O)Nc2ccccc2Cl)cc1S(=O)(=O)N1CCOCC1	-40.5
C#CCOCCOCCOCCNc1nc(N2CCN(C(=O)CCCCCCCCCCNC(=O)[C@@H](CCSC)n3cc(CCO)nn3)CC2)nc(N2CCN(C(=O)CCCCCCCCCCNC(=O)[C@@H]([C@H](C)O)n3cc(C)nn3)CC2)n1	5.39
CCOc1ccc(S(=O)(=O)NC(C)C(=O)NCc2cccnc2)cc1 (stereo not shown)	3.67
O=C(CCc1nc2sc3c(c2c(=O)[nH]1)CCCC3)NCC(=O)Nc1ccccc1Br	-1.81
Cc1cc(C)cc(NC(=O)Cn2nnc(C(=O)NCc3ccco3)c2N)c1	6.01
Cc1ccc(S(=O)(=O)n2nc(C)c(S(=O)(=O)N3CCCCC3)c2C)cc1	25.7
Cc1cccc(C2CC(c3ccc(F)cc3)Nc3nc(N)nn32)c1 (stereo not shown)	-34.1
COc1cc(-c2n[nH]c(=S)n2C(C)c2ccccc2)cc(OC)c1OC (stereo not shown)	9.19
COc1cccc(NC(=O)CCNC(=O)Cn2ccc3ccccc3c2=O)c1	-2.25
CCOC(=O)c1cn(-c2ccc([N+](=O)[O-])cc2)c2cc(Cl)c([N+](=O)[O-])cc2c1=O	7.14
